Measured values published in PubChem BioAssay AID463173 (ICCB-Longwood Screening Facility, Harvard Medical School, 2010).
Screen size: about 52,000 compounds; about 4,300 (8.3%) were called active. Rule as the data show it: active = survival mostly below about 52% (no sharp cut-off); inactive = mostly above about 56%. This is one part of the list.

test system: DeltatarO mutant; test: S. aureus survival, RN4220 and DeltatarO strains – OD600, teichoic acid synthesis inhibitors, primary screen (AID 463173); conditions: S. aureus RN4220 wild type/DeltatarO growth, OD600, 18 h, hits give low values, screened at 18.75 µg/mL (by protocol)

| SMILES | survival |
| --- | --- |
| O=C(NCc1ccccc1)C1CCN(c2ncnc3c2nc2n3CCCCC2)CC1 | inactive: 84% |
| NC(=O)C1CCN(C(=O)CSc2nccc(-c3ccccc3)n2)CC1 | inactive: 90% |
| CC1CCCCN1C(=O)C1COc2ccccc2O1 (stereo not given) | inactive: 65% |
| O=C1C2C3C=CC(C3)C2C(=O)N1c1ccc2c(c1)OCO2 (stereo not given) | inactive: 73% |
| CCOC(=O)c1cccc(NC(=O)C2COc3ccc(OC)cc3C2)c1 (stereo not given) | inactive: 80% |
| Cc1ccc(CCNC(=O)C2CC(=O)N(CCc3ccc(C)cc3)C2)cc1 (stereo not given) | inactive: 101% |
| O=C(NCc1ccc(Cl)cc1)c1ccc2c(c1)nnn2C1CCCC1 | inactive: 92% |
| CCCCc1ccc(NC(=O)Cn2cnc3c(oc4ccccc43)c2=O)cc1 | inactive: 83% |
| Cc1ccc(-n2cc(-c3ccccc3)c3c(N4CCC(C)CC4)ncnc32)cc1Cl | inactive: 86% |
| COc1ccc(C)cc1NC(=O)CSc1nc(=O)n(Cc2ccco2)c2c1CCC2 | inactive: 116% |
| CCOC(=O)C1CCCN(c2c3c(nc4cc(-c5ccc(C)cc5)nn24)CCC3)C1 (stereo not given) | inactive: 105% |
| Cc1cccc(N(C)S(=O)(=O)c2nnc(NC(=O)C(C)Oc3ccccc3)s2)c1 (stereo not given) | inactive: 54% |
| CN1C(=O)c2ccccc2Sc2ccc(NC(=O)Cc3ccc(Cl)cc3)cc21 | inactive: 119% |
| COc1ccc(OC)c(CCNC(=O)c2ccc3c(c2)N(Cc2ccccc2)CCS3)c1 | inactive: 83% |
| COC(=O)c1sccc1S(=O)(=O)N1CCN(c2cccc(C)c2)C(C)C1 (stereo not given) | inactive: 88% |
| CCCSC1=NC2(CCN(C(=O)NC3CCCCC3)CC2)N=C1c1ccc(C)cc1 | inactive: 77% |
| CN1CCN(NC(=O)c2ccc(Cl)cc2)CC1 | inactive: 80% |
| COCCNC(=O)c1cn(C(C)c2ccccc2)nn1 (stereo not given) | inactive: 106% |
| Cc1ccccc1NC(=O)CSc1nc2c(oc3ccccc32)c(=O)n1Cc1ccco1 | inactive: 64% |
| Cc1ccc(C)c(OCc2nc3ccccc3n2C)c1 | inactive: 59% |
| Cc1nc2nc(NCc3ccccc3Cl)[nH]n2c(=O)c1Cc1ccccc1 | inactive: 83% |
| CCCC(=O)Nc1ccc(NC(=O)c2ccc(OC)cc2)cn1 | inactive: 101% |
| CCOC(=O)c1cnc2c(C)cc(C)cc2c1NCCN1CCOCC1 | active: 32% |

| SMILES | survival |
| --- | --- |
| O=C(Nc1ccccc1OCc1cc(=O)n2ccccc2n1)Nc1ccccc1C(F)(F)F | inactive: 75% |
| CCOc1ccccc1NC(=O)CCS(=O)(=O)c1ccc2c(c1)oc(=O)n2C | inactive: 92% |
| CC(C)NC(=O)C1CCCN(c2ncnc3onc(-c4ccc(F)cc4)c23)C1 (stereo not given) | inactive: 85% |
| CCOc1cc(-c2nnc(SCC(=O)NC3CCCCC3)nc2-c2ccc(OC)c(OCC)c2)ccc1OC | inactive: 87% |
| CC1(C)Cc2ccccc2C2=NNC(=O)C2=N1 | inactive: 52% |
| COc1ccc(CNC(=O)CCCn2ccc3cc(S(=O)(=O)N4CCCC4)ccc32)cc1 | inactive: 101% |
| Cc1ccc(Nc2nc(Cl)nc(N(C)C#N)n2)cc1 | inactive: 108% |
| COc1ccc2oc(-c3cccc(NC(=O)c4cc([N+](=O)[O-])ccc4N4CCOCC4)c3)nc2c1 | inactive: 49% |
| CCOC(=O)C(C)Sc1nnc2cc(C)c3ccccc3n12 (stereo not given) | inactive: 73% |
| CCOC(=O)c1[nH]c2c(c1Cc1ccccc1)C(=O)CC(c1ccc(C(C)(C)C)cc1)C2 (stereo not given) | inactive: 63% |
| CCOC(=O)C1CCN(C(=O)c2cnn(-c3ccc(F)cc3)c2-n2cccc2)CC1 | inactive: 73% |
| COc1ccc(C(=O)Nc2nc3c(s2)Cc2c(Br)ccc(OC)c2-3)cc1OC | active: 36% |
| Cc1cc(C)cc(N(CC(=O)Nc2c(C)cc(C)cc2C)S(=O)(=O)c2c(C)nn(C)c2C)c1 | active: -5% |
| CCN(CC)S(=O)(=O)c1cc(-c2ccc(=O)n(C(C)C(=O)Nc3cccc(C#N)c3)n2)ccc1C (stereo not given) | inactive: 56% |
| CCc1ccc(NC(=O)CSc2nnc(CC)c(CC)n2)cc1 | inactive: 72% |
| Cc1ccc(Cn2c(CN3CCC(C(=O)O)CC3)cc3ccccc32)cc1 | inactive: 95% |
| CCc1[nH]nc2c1C1(C(=O)Nc3ccc(Cl)cc31)C(C#N)=C(N)O2 (stereo not given) | inactive: 78% |
| COc1ccc(-c2noc(CSc3nnc(Cc4ccccc4)n3-c3ccc(F)cc3)n2)cc1 | inactive: 62% |
| CN(CC(=O)Nc1ccc(F)cc1F)S(=O)(=O)c1cccc2nsnc12 | inactive: 92% |
| CCCCN1C2CCCC1CC(NC(=O)C1CCCCC1)C2 (stereo not given) | inactive: 51% |
| CCN(CC)CCCNC(=O)c1sc2nc3n(c(=O)c2c1C)CCCCC3 | inactive: 111% |
| Cc1ccc(CN2CCC(CNC(=O)c3cnn(-c4ccc(C)cc4)c3C3CCN(C(=O)OC(C)(C)C)CC3)CC2)cc1 | inactive: 97% |
| CCOC(=O)CN1C(=O)N(c2ccc(C)c(C)c2)S(=O)(=O)c2ccccc21 | inactive: 80% |

| SMILES | survival |
| --- | --- |
| Cc1ccc(S(=O)(=O)N(CC(=O)Nc2cccnc2)c2cc(Cl)ccc2C)cc1 | inactive: 78% |
| O=C(CSc1ccccc1)NN1C(=O)c2ccccc2C1=O | inactive: 102% |
| COc1ccc(NC(=O)CC2C(=O)N(c3ccccc3)C(=O)N2CCc2sccc2C)cc1 (stereo not given) | inactive: 65% |
| Cc1cccc(NC(=O)CCCn2nc(C)c3c(C)n(-c4ccccc4)nc3c2=O)c1C | inactive: 70% |
| COc1ccc(Nc2ncc3c(n2)CCN(Cc2sccc2C)C3)c(OC)c1 | inactive: 73% |
| COc1ccc2c(CNCCc3ccco3)c(C(=O)O)n(Cc3ccc(C)cc3)c2c1 | inactive: 73% |
| Cc1ccc(-n2ncc3c(NCCCN(C)C)ncnc32)cc1Cl | inactive: 95% |
| O=C(Cn1ncc2c3ccccc3n(Cc3ccccc3)c2c1=O)NCc1ccccn1 | inactive: 82% |
| Cc1ccccc1CNC(=O)C1CCCCN1S(=O)(=O)c1ccc(F)cc1 (stereo not given) | inactive: 102% |
| O=[N+]([O-])c1ccc(S(=O)(=O)N2CCn3cccc3C2c2ccc(Br)cc2)cc1 (stereo not given) | inactive: 75% |
| COc1ccc(C(CNC(=O)c2oc3cc(Br)ccc3c2C)N2CCCCC2)cc1 (stereo not given) | inactive: 92% |
| COc1ccc(OC)c(-c2cc(C(=O)Nc3c(C)nn(Cc4ccc(C)cc4)c3C)no2)c1 | active: 34% |
| Cc1ccc(NC(=O)c2c(C)oc3ccc(O)c(CN4CCN(Cc5ccccc5)CC4)c23)cc1 | inactive: 69% |
| Cc1ccc(-n2nc(C(=O)N(C)c3ccc(C)c(C)c3)c3c4ccccc4n(C)c3c2=O)cc1 | inactive: 83% |
| CCOc1ccc(CNC(=O)c2ccc(CSc3nc4ccncc4n3Cc3ccc(F)cc3)cc2)cc1 | inactive: 69% |
| COc1cccc(NC(=O)c2oc3ccccc3c2NC(=O)c2ccccc2C)c1 | active: 43% |
| O=C(CC1N=C2c3ccccc3N=C(SCc3cccc(F)c3)N2C1=O)NCc1cccs1 (stereo not given) | inactive: 91% |
| COc1cccc(-c2cc(C(=O)Nc3cnn(Cc4ccc(Cl)cc4Cl)c3)no2)c1 | inactive: 101% |
| Cc1nn(-c2ccccc2)c2nc(C3CC3)cc(C(=O)Nc3cccc(F)c3)c12 | inactive: 93% |
| CC(C)CCNc1nc2c(-c3ccccc3)nnn2c2ccccc12 | inactive: 84% |
| COc1ccc(Cn2ccc3nc(C)c(C(=O)N4CCN(c5ccc(F)cc5)CC4)cc3c2=O)cc1 | inactive: 75% |
| Cc1ccccc1NC(=O)c1c(NC(=O)c2ccccc2F)sc2c1CCC(C)C2 (stereo not given) | inactive: 63% |
| CCCCN1C(=O)c2[nH]nc(-c3ccccc3O)c2C1c1ccc(OCc2ccccc2)c(OC)c1 (stereo not given) | active: 35% |

| SMILES | survival |
| --- | --- |
| COc1ccccc1NC(=O)c1ncn(-c2ccccc2)n1 | inactive: 115% |
| CCOC(=O)c1cccc(NC(=O)CCc2c(C)nn(-c3ccc(N4CCCCC4)nn3)c2C)c1 | inactive: 99% |
| Cc1ccc(Sc2c(C)nn(C(C)(C)C)c2OC(=O)CC(C)C)cc1 | active: -9% |
| Cc1c(C(=O)OC2CCC(C)CC2)[nH]c2c1C(=O)CC(c1ccc(F)cc1)C2 (stereo not given) | inactive: 93% |
| C(=N\c1nc2ccccc2n1Cc1ccccc1)/c1ccc2c(c1)OCO2 | inactive: 70% |
| Cc1ccc(CNC(=O)CCNS(=O)(=O)c2ccc3c(c2)CCCC(=O)N3)cc1 | inactive: 72% |
| CCCCN(CCCC)CCCNC(=O)c1ccc2nc(N3CCCCC3)sc2c1 | inactive: 102% |
| COc1ccc2c(c1)c1c(c(=O)n(-c3cc(Cl)ccc3C)c(=O)n1CC(=O)N1CCCC1)n2C | inactive: 83% |
| COc1ccc(-c2nnn3c2nc(NCCc2ccc(OC)c(OC)c2)c2ccccc23)cc1 | inactive: 66% |
| Cc1nn2c(=O)cc(COc3ccc(/C=C(\C#N)C(=O)Nc4ccccc4C)cc3)nc2s1 | inactive: 49% |
| COc1ccc(OC)c(Nc2nc3ccccc3nc2-n2nc(C)cc2C)c1 | active: 16% |
| CCN(CC)S(=O)(=O)c1ccc(Cl)c(OC)c1 | inactive: 101% |
| CCCc1cc(=O)[nH]c(SCc2nc(-c3ccc(OCC)cc3)no2)n1 | inactive: 55% |
| Cc1ccc(-c2noc(-c3ccc(N4CCCC4)c([N+](=O)[O-])c3)n2)cc1 | inactive: 103% |
| Cc1ccc(C(=O)Nc2c(C(=O)Nc3ccc(C)c(C)c3)sc3nc(C)cc(C)c23)cc1 | inactive: 54% |
| CC1(C)CC(NS(=O)(=O)c2ccccc2)CC(C)(C)N1 | inactive: 74% |
| Cc1ccc(C2C=C(c3ccccc3)Nc3nc(NS(C)(=O)=O)nn32)cc1 (stereo not given) | inactive: 67% |
| Cc1c(-c2ccccc2)c(=O)oc2c(CN3CCOCC3)c(O)ccc12 | inactive: 55% |
| COc1ccc(NC(=O)C2CCN(c3cc(C)nc4c(-c5ccc(Cl)cc5)c(C)nn34)CC2)cc1 | inactive: 90% |
| CCc1cccc(C)c1NC(=O)CSc1nc2ccncc2[nH]1 | inactive: 137% |
| CCN(CC)S(=O)(=O)c1ccc(-n2cnnn2)c(C)c1 | inactive: 111% |
